# From PubChem BioAssay (Tox21)
# “And” between values parts separate entries of the source, which are not always exact repeats. Identical values can stand only once. This list was built around the results that the source calls inconclusive (neither active nor inactive); the mix of calls is not that of the screen. For some assays here: Where the call is inconclusive, the potency comes from a doubtful curve fit. The source holds several records for some structures; these can differ, active in one and inactive in another. The source made the active and inactive calls. Unless noted, calls come from the whole dose curve; as a rule, active = well fitted curve in the direction sought with a large enough effect in the repeat runs; inconclusive = weak or mixed curves; inactive = no such curve, though single readings can be large; an effect the other way counts as inactive or inconclusive.
# Columns and labels:
# [1] = qHTS assay for identifying genotoxic compounds that show differential cytotoxicity against isogenic chicken DT40 cell lines with known DNA damage response pathways - wild type cell line (AID 743012); conditions: DT40 wild type chicken cells viability, CellTiter-Glo, 40 h; activity change, negative = cytotoxicity: at 68.4 µM (top of the series) unless noted; note: nearly all actives have a fitted effect of over 60% in size; note: potency is the fitted concentration of half-maximal effect
# Procedure, shortened: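 Wild-type DT40 cells (300/well) exposed to compounds for 40 hours at 37 C/5% CO2. Viability read by CellTiter-Glo luminescence after 30 min at room temperature.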
# [2] = qHTS assay for identifying genotoxic compounds that show differential cytotoxicity against isogenic chicken DT40 cell lines with known DNA damage response pathways - Rev3 mutant cell line (AID 743014); conditions: chicken DT40 Rev3-/- viability, CellTiter-Glo, 40 h; activity, negative = cytotoxicity: at 68.4 µM (top of the series) unless noted; note: potency is the fitted concentration of half-maximal effect; nearly all actives have a fitted effect of over 55% in size
# [3] = qHTS assay for identifying genotoxic compounds that show differential cytotoxicity against isogenic chicken DT40 cell lines with known DNA damage response pathways - Rad54/Ku70 mutant cell line (AID 743015); conditions: DT40 Rad54/Ku70 mutant viability, CellTiter-Glo, 40 h; activity change, negative = cytotoxicity: at 66.8 µM (top of the series); note: nearly all actives have a fitted effect of over 60% in size; note: potency is the fitted concentration of half-maximal effect
# [4] = qHTS assay to identify small molecule antagonists of the thyroid receptor (TR) signaling pathway (AID 743065); note: potency is the fitted concentration of half-maximal effect; nearly all actives have a fitted effect of over 55% in size
# Procedure, shortened: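 GH3.TRE-Luc rat pituitary cells carrying two TR response elements driving luciferase were plated for 4 h, given compound plus 1 nM T3 (final), and incubated 23.5 h at 37 C. ONE-Glo luminescence measured reporter inhibition; CellTiter-Fluor fluorescence tracked cytotoxicity.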
# [5] = qHTS assay to identify small molecule antagonists of the estrogen receptor alpha (ER-alpha) signaling pathway - cell viability counter screen (AID 743074; calls by dose curve; note: nearly all actives have a fitted effect of over 45% in size; note: potency is the fitted concentration of half-maximal effect; for activity, negative = cytotoxicity: % is set by controls: 0 for no effect and ±100 for the full control effect)
# [6] = qHTS assay to identify small molecule antagonists of the androgen receptor (AR) signaling pathway - cell viability counter screen (AID 743033; note: potency is the fitted concentration of half-maximal effect; nearly all actives have a fitted effect of over 45% in size); conditions: AR-bla HEK293 viability, CellTiter-Glo luminescence, 16 h; activity change, negative = cytotoxicity: at 58.5 µM (top of the series)
# [7] = qHTS assay to identify small molecule antagonists of the thyroid receptor (TR) signaling pathway - cell viability counter screen (AID 743064); conditions: GH3.TRE-Luc viability, CellTiter-Fluor, 24 h; activity change, negative = cytotoxic: at 70.3 µM (top of the series) unless noted; note: nearly all actives have a fitted effect of over 50% in size; note: potency is the fitted concentration of half-maximal effect; for activity change, negative = cytotoxic: % is set by controls: 0 for no effect and ±100 for the full control effect
# Procedure, shortened: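 Fluorescence from CellTiter-Fluor, added after 23.5 h exposure at 37 °C, reported viability of GH3.TRE-Luc cells co-treated with compound and 1 nM T3. Measured in the same wells as the luciferase TR readout.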
# [8] = biological target: Estrogen receptor (Homo sapiens) (UniProt P03372); test: qHTS assay to identify small molecule agonists of the estrogen receptor alpha (ER-alpha) signaling pathway (AID 743075; calls by dose curve; note: potency is the fitted concentration of half-maximal effect)
# [9] = biological target: Estrogen receptor (Homo sapiens) (UniProt P03372); test: qHTS assay to identify small molecule agonists of the estrogen receptor alpha (ER-alpha) signaling pathway using the BG1 cell line (AID 743079); conditions: BG1Luc4E2 cells, ERE-luciferase agonist, 22 h; activation: at 70.3 µM (top of the series) unless noted; note: nearly all actives have a fitted effect of over 20% in size; note: potency is the fitted concentration of half-maximal effect; for activation: % is set by controls: 0 for no effect and ±100 for the full control effect
# [10] = qHTS assay to identify small molecule antagonists of the estrogen receptor alpha (ER-alpha) signaling pathway using the BG1 cell line - cell viability counter screen (AID 743081);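 note: compound given together with 17beta-estradiol as the ER stimulus; nearly all actives have a fitted effect of over 45% in size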; note: potency is the fitted concentration of half-maximal effect; for activity change, negative = cytotoxicity: % is set by controls: 0 for no effect and ±100 for the full control effect
# [11] = biological target: Androgen receptor (Homo sapiens) (UniProt P10275); test: qHTS assay to identify small molecule antagonists of the androgen receptor (AR) signaling pathway (AID 743035; active = well fitted inhibition curve with a large enough effect in the signal ratio in the repeat runs, not every such curve was filed as active; inconclusive = weak or mixed curves, or effect the other way; inactive = no such curve, though single readings can be large or run the other way; the % refers to the signal ratio; note: potency is the fitted concentration of half-maximal effect); conditions: HEK293 AR-UAS-bla, R1881-stimulated, beta-lactamase FRET, 16 h; activity change, negative = inhibition: at 58.5 µM (top of the series) unless noted
# Procedure, shortened: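 HEK293 cells stably carrying UAS-beta-lactamase reporter, 2,000/well, given compounds plus R1881 agonist and incubated 16 h at 37C. LiveBLAzer B/G FRET substrate then added for 2 h at room temperature before fluorescence reading.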
# [12] = biological target: Androgen receptor (Homo sapiens) (UniProt P10275); test: qHTS assay to identify small molecule agonists of the androgen receptor (AR) signaling pathway using the MDA cell line (AID 743040; note: % is set by controls: 0 for no effect and ±100 for the full control effect; nearly all actives have a fitted effect of over 20% in size); conditions: MDA-kb2 AR-luc cells, MMTV luciferase, 16 h; activity change: at 70.3 µM (top of the series), stronger effect = higher value unless noted
# Procedure, shortened: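 MDA-kb2 breast carcinoma cells stably carrying an MMTV-driven luciferase reporter (AR- and GR-responsive) were seeded and held 5 h at 37C, 0% CO2, then exposed to compounds in DMSO for 16 h. Luminescence was read 30 min after ONE-Glo addition.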
# [13] = qHTS assay to identify small molecule antagonists of the androgen receptor (AR) signaling pathway using the MDA cell line - cell viability counter screen (AID 743041; note: nearly all actives have a fitted effect of over 45% in size; note: potency is the fitted concentration of half-maximal effect); conditions: MDA-kb2 viability, CellTiter-Fluor, 16 h, cells co-treated with R1881 androgen agonist; viability change, negative = cytotoxic: at 70.3 µM (top of the series) unless noted
# Procedure, shortened: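 MDA-kb2 AR-luc human breast carcinoma cells (MMTV-luciferase, AR/GR responsive) were treated with compounds plus R1881 agonist for 16 h at 37 °C. Viability was read as CellTiter-Fluor fluorescence in the same wells as the reporter assay.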
# [14] = biological target: Androgen receptor (Homo sapiens) (UniProt P10275); test: qHTS assay to identify small molecule antagonists of the androgen receptor (AR) signaling pathway using the MDA cell line (AID 743042; note: potency is the fitted concentration of half-maximal effect; nearly all actives have a fitted effect of over 55% in size)
# Procedure, shortened: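 MDA-kb2 cells (human breast carcinoma, stably carrying an MMTV-luciferase reporter responsive to AR and GR) were plated at 3,000 cells/well and preincubated 5 hr at 37C, then given compound plus R1881 agonist for 16 h. ONE-Glo luminescence was read.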
# [15] = biological target: Estrogen receptor (Homo sapiens) (UniProt P03372); test: qHTS assay to identify small molecule antagonists of the estrogen receptor alpha (ER-alpha) signaling pathway (AID 743069; active = well fitted curve in the direction sought with a large enough effect in the signal ratio in the repeat runs, not every such curve was filed as active; inconclusive = weak or mixed curves, or effect the other way; inactive = no such curve, though single readings can be large or run the other way; the % refers to the signal ratio; note: potency is the fitted concentration of half-maximal effect); conditions: HEK293 ER-alpha-UAS-bla, beta-lactamase ratio, antagonist mode; activity, negative = inhibition: at 69.4 µM (top of the series) unless noted
# Procedure, shortened: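 HEK293 cells stably carrying an ER-alpha-UAS-bla beta-lactamase reporter were pre-cultured overnight in 2% charcoal-stripped FBS medium. Test compounds in DMSO were added together with 17beta-estradiol for 18 hr at 37C. Read-out was fluorescence after 2 hr with LiveBLAzer B/G FRET substrate at room temperature.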
# [16] = biological target: Aromatase (Homo sapiens) (UniProt P11511); test: qHTS assay to identify aromatase inhibitors (AID 743083); note: potency is the fitted concentration of half-maximal effect; nearly all actives have a fitted effect of over 55% in size
# [17] = qHTS assay to identify aromatase inhibitors - cell viability counter screen (AID 743084); conditions: MCF-7 aro ERE viability, CellTiter-Fluor, 24 h; activity change, negative = cytotoxicity: at 70.3 µM (top of the series)
# Tags give direction and shape of the fitted curve or compound fluorescence and quenching.
# Chain of UniProt P10275 (P10275 whole entry, looked up): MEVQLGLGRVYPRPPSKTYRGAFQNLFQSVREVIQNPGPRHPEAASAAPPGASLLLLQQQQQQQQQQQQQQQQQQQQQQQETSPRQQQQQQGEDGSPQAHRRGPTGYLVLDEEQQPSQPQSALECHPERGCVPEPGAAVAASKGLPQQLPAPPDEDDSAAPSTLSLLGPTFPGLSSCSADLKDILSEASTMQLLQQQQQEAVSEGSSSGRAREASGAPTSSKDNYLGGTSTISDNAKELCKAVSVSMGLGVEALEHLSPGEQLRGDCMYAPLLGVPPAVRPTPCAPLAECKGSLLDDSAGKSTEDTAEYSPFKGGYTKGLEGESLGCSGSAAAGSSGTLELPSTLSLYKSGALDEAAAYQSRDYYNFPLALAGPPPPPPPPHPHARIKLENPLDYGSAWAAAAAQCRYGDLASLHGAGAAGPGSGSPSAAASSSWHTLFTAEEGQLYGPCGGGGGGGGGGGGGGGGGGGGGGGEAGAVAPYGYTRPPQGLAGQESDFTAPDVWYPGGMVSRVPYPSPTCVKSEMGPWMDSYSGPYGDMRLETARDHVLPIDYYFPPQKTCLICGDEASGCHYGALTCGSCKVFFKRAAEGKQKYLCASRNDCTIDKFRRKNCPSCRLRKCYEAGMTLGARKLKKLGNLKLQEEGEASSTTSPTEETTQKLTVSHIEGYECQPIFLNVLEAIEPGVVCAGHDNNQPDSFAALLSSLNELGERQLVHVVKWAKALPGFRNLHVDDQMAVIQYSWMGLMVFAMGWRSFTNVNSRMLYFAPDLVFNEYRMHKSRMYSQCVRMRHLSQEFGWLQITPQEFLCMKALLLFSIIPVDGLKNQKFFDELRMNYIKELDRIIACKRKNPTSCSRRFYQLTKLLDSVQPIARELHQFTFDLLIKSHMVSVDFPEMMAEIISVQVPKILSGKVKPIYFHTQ
# Chain of UniProt P03372 (P03372 whole entry, looked up): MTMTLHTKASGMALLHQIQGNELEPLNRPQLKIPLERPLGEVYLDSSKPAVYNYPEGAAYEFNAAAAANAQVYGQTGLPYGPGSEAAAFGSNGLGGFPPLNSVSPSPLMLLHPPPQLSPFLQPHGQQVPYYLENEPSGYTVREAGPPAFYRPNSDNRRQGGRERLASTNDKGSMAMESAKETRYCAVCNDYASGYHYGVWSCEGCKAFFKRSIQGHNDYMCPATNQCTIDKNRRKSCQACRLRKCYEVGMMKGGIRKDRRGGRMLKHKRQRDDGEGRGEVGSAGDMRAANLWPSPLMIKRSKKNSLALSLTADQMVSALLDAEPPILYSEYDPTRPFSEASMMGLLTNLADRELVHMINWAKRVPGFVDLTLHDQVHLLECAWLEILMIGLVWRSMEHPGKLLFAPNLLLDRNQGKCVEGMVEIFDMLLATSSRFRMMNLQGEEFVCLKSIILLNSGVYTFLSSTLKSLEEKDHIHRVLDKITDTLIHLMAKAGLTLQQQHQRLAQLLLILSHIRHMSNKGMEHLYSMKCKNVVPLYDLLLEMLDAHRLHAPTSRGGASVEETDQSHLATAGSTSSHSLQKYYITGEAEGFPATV
# Chain of UniProt P11511 (P11511 whole entry, looked up): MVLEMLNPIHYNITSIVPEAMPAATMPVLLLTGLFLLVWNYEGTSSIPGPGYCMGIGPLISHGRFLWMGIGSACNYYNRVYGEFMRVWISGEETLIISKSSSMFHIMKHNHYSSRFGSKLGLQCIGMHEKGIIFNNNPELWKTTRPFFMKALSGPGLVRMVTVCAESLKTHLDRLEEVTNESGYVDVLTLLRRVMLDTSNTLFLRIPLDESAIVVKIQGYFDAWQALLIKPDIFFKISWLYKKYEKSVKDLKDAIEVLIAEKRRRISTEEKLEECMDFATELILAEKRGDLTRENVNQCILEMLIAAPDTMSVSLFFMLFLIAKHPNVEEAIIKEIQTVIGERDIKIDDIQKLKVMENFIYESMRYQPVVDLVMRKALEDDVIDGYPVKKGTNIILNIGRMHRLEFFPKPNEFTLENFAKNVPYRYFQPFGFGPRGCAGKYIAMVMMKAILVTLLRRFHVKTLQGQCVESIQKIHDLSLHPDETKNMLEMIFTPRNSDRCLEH
smiles,measurement,setting,value
COC(=O)C(c1ccccc1Cl)N1CCc2sccc2C1 (stereo unspecified),Potency,[1],"inconclusive: 26.6 µM [cytotoxic, single point]"
same,Potency,[2],"inconclusive: 33.5 µM [cytotoxic, single point]"
same,Potency,[3],"inconclusive: 33.5 µM [cytotoxic, single point]"
same,Potency,[4],"inconclusive: 33.5 µM [inhibitor, partial curve, poor fit]"
same,Potency,[5],inactive
CCCCCCCCCCCC[N+](C)(C)CCCS(=O)(=O)[O-],Potency,[1],"inconclusive: 6.94 µM [rising, partial curve]"
same,Potency,[2],"inconclusive: 61.9 µM [cytotoxic, partial curve]"
same,Potency,[3],active: 27.6 µM
same,Potency,[6],"inconclusive: 35.1 µM [cytotoxic, partial curve, poor fit]"
same,Potency,[7],"inconclusive: 55.1 µM [cytotoxic, partial curve, poor fit]"
same,Potency,[5],active: 49.6 µM
CCCC[P+](C)(CCCC)CCCC,Potency,[1],"inconclusive: 78 µM [cytotoxic, single point]"
same,Potency,[2],"inconclusive: 69.5 µM [cytotoxic, single point]"
same,Potency,[3],"inconclusive: 69.5 µM [cytotoxic, single point]"
same,Potency,[7],inactive
same,Potency,[8],"inconclusive: 39.4 µM [activator, partial curve]"
same,activation,[9],inconclusive: 4.65% [phenotype inactive] [at 95 µM]
same,Potency,[10],inactive
CO[C@H]1C=CO[C@@]2(C)Oc3c(C)c(O)c4c(O)c(c5c(c4c3C2=O)=NC2(CCN(CC(C)C)CC2)N=5)NC(=O)/C(C)=C\C=C/[C@H](C)[C@H](O)[C@@H](C)[C@@H](O)[C@@H](C)[C@H](OC(C)=O)[C@@H]1C,Potency,[1],active: 16.8 µM and active: 42.3 µM
same,Potency,[2],active: 23.7 µM and active: 47.5 µM
same,Potency,[3],active: 11.9 µM and active: 30 µM
same,Potency,[11],"inconclusive: 12 µM [falling, full curve]"
same,activity change,[12],inconclusive: -6.91% [phenotype inactive]
same,Potency,[13],inactive
same,Potency,[14],"inconclusive: 8.44 µM [inhibitor, partial curve]"
same,Potency,[7],"active: 29.8 µM and inconclusive: 67.1 µM [cytotoxic, single point]"
same,Potency,[4],"active: 29.8 µM and inconclusive: 67.1 µM [inhibitor, single point]"
same,Potency,[15],"inconclusive: 19.1 µM [fluorescent, full curve]"
same,Potency,[9],"inconclusive: 59.8 µM [inhibitor, partial curve]"
same,Potency,[10],active: 26.6 µM and active: 53.3 µM
same,Potency,[16],inconclusive: 67.1 µM [inhibitor]
same,Potency,[17],"inconclusive: 29.8 µM [cytotoxic, partial curve] and active: 30 µM"
COc1ccc(Cl)cc1C(=O)NCCc1ccc(S(=O)(=O)NC(=O)NC2CCCCC2)cc1,Potency,[1],"inconclusive: 33.5 µM [cytotoxic, partial curve, poor fit] and inconclusive: 68.6 µM [cytotoxic, single point]"
same,Potency,[2],"inconclusive: 68.6 µM [cytotoxic, single point]"
same,Potency,[3],"inconclusive: 33.5 µM [cytotoxic] and inconclusive: 68.6 µM [cytotoxic, single point]"
same,"activity change, negative = cytotoxic",[7],inconclusive: 16.6%
same,Potency,[17],"inconclusive: 6.11 µM [rising, partial curve]"
Nc1c(S(=O)(=O)O)cc(Br)c2c1C(=O)c1ccccc1C2=O,Potency,[1],"inconclusive: 68.6 µM [cytotoxic, single point]"
same,Potency,[2],"inconclusive: 68.6 µM [cytotoxic, single point]"
same,Potency,[3],"inconclusive: 68.6 µM [cytotoxic, single point]"
same,Potency,[13],"inconclusive: 27.9 µM [cytotoxic, partial curve, poor fit] and active: 30.6 µM"
same,Potency,[7],active: 61.1 µM
same,Potency,[4],"inconclusive: 54.5 µM [inhibitor, partial curve]"
same,Potency,[10],"inconclusive: 35.2 µM [cytotoxic, partial curve] and active: 27.3 µM"
same,Potency,[17],"inconclusive: 35.2 µM [cytotoxic, single point] and active: 34.4 µM"
COc1ccc2c(c1OC)C(=O)O[C@@H]2[C@H]1c2c(cc3c(c2OC)OCO3)CCN1C,Potency,[1],inactive
same,Potency,[2],"inconclusive: 37.6 µM [cytotoxic, partial curve, poor fit]"
same,Potency,[3],inactive
same,Potency,[7],active: 11.9 µM
same,Potency,[10],"inconclusive: 21.1 µM [cytotoxic, partial curve]"
C1COC(NC(C2CC2)C2CC2)=N1,Potency,[1],inactive
same,Potency,[2],"inconclusive: 33.5 µM [cytotoxic, single point]"
same,Potency,[3],"inconclusive: 33.5 µM [cytotoxic, single point]"
same,Potency,[6],"inconclusive: 26.8 µM [cytotoxic, partial curve, poor fit]"
same,Potency,[7],"inconclusive: 33.5 µM [cytotoxic, single point]"
same,Potency,[9],inconclusive: 0.0007 µM [activator]
